The experiment has as its target PD-1 (human). In words: cell-based or functional assay.

B1: PD-L2 IgV-Fc I13V, H15Q, T47A, Q82R, V89D (SEQ 725) (Fc fusion)
chain: LFTVTVPKELYIVEQGSNVTLECDFDTGSHVNLGAITASLQKVENDTSPHRERATLLEEQLPLGKASFHIPQVQVRDEGQYRCIIIYGDAWDYKYLTLKVKAAAA[sequence of human IgG1 Fc with C220S R292C N297G V302C (EU numbers) not given]
As to B1, the “IFN gamma levels pg/ml (MLR)” value was 1740 pg/mL.

B2: PD-L2 IgV-Fc I13V, H15Q, T47A, E58G, S67L, Q82R, V89D (Fc fusion)
chain: LFTVTVPKELYIVEQGSNVTLECNFDTGSHVNLGAITASLQKVENDASPHRERATLLGEQLPLGKALFHIPQVQVRDEGQYRCIIIYGDAWDYKYLTLKVKAAAA[sequence of human IgG1 Fc with C220S R292C N297G V302C (EU numbers) not given]
As to B2, the “IFN gamma levels pg/ml (MLR)” value came to 836 pg/mL.

(Values after patent publication US20230381229A1 (ALPINE IMMUNE SCIENCES, INC., published 2023).)
